# Hit rate of the full screen: of about 350,000 compounds, about 260 (0.074%) were called active. The inconclusive results got no clear call from the source; some entries with a clear call stand among them for comparison. Calls come from the whole dose curve; as a rule, active = well fitted inhibition curve with a large enough effect; inconclusive = small, poorly fitted or top-dose-only effect; inactive = no such curve, though single readings can be large or run the other way. Potencies of inconclusive entries are doubtful fits and often do not repeat.
# Molecular target: Ferritin light chain (Equus caballus) (UniProt P02791)
# Assay: qHTS Assay for Identification of Novel General Anesthetics; note: nearly all actives have a fitted effect of over 20% in size
# Conditions: apoferritin/1-aminoanthracene competitive binding, fluorescence; activity change, negative = displacement: at 77.5 µM (top of the series)
# Summary of the method: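 Read-out: endpoint 1-AMA fluorescence, excitation 380 nm and emission 535 nm, after compounds sit 10 min at room temperature with 10 uM horse-spleen apoferritin in 50% saturated 1-AMA/PBS. Values come from four-parameter Hill fits.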
# % is set by controls: 0 for no effect and ±100 for the full control effect; potency is the fitted concentration of half-maximal effect; tags give direction and shape of the fitted curve.
# Sequence of UniProt P02791 (P02791 whole entry, looked up): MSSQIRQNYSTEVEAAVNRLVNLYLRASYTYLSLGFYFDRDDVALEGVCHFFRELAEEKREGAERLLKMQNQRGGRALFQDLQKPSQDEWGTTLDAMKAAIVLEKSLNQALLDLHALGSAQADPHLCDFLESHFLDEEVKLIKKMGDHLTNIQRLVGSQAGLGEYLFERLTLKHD
SMILES,"activity change, negative = displacement",Potency
Cc1ccc(-c2nnc(SCC(=O)Nc3sc(C)c(C)c3C#N)n2C)cc1,inactive: -6.49%,
CCCSc1ncc(Cl)c(C(=O)N(Cc2ccc(N(C)C)cc2)C2CCS(=O)(=O)C2)n1 (stereo not given),inactive: -20.5%,
Cc1ccc2nc(/C(C#N)=C/c3ccc(O)c(O)c3)[nH]c2c1,,"inconclusive: 56.2 µM [inhibitor, single point]"
O=C(NCCCn1ccnc1)/C(=C\c1cccs1)NC(=O)c1ccccc1,inactive: -8.14%,
CC(C)(Oc1ccc(Cl)cc1)C(=O)Nc1ccc2oc(=O)ccc2c1,,"inconclusive: 39.8 µM [inhibitor, single point]"
O=C(CN(c1ccc(Cl)c(C(F)(F)F)c1)S(=O)(=O)c1ccccc1)N/N=C/c1cccc2c1OCCO2,,"inconclusive: 3.55 µM [inhibitor, partial curve]"
O=C(CCC(=O)c1cccs1)Nc1ccc(N2CCCCC2)cc1,,"inconclusive: 25.1 µM [inhibitor, partial curve]"
Cc1ccc(/C=N/n2cnc3sc(C)c(C)c3c2=O)o1,,"inconclusive: 25.1 µM [inhibitor, partial curve]"
Cc1cnc(CNc2nc(-c3ccc(C(=O)N(C)C)cc3)nc3ccccc23)cn1,inactive: -6.17%,
O=C1OCCC1N(C(=O)C1CC1)c1cccc(Cl)c1 (stereo not given),inactive: 2.45%,
Cc1cc(S(=O)(=O)N(Cc2ccccc2F)C2CC2)ccc1-n1cnnn1,,"inconclusive: 28.2 µM [inhibitor, partial curve]"
CCc1ccc(C(=O)CSC2=C(C#N)C(c3ccco3)C(C(C)=O)=C(C)N2)cc1 (stereo not given),,"inconclusive: 12.6 µM [inhibitor, partial curve]"
COc1ccc2c(c1)c(=O)c(S(=O)(=O)c1ccc(Cl)cc1)cn2C,,"inconclusive: 35.5 µM [inhibitor, partial curve]"
O=C(CCS(=O)(=O)c1ccccc1)Nc1nc2c(s1)COc1ccccc1-2,,"inconclusive: 31.6 µM [inhibitor, partial curve]"
COCCN=C1Sc2nc3c(C)cccc3cc2CN1Cc1ccco1,inactive: -0.513%,
COc1ccc(NC(=O)COC(=O)COc2cccc(Br)c2)cc1OC,,"inconclusive: 11.2 µM [inhibitor, partial curve]"
Cc1cc(N)n(-c2nc3ccccc3s2)n1,,"inconclusive: 28.2 µM [inhibitor, partial curve]"
CC(C)(C)n1ncc2c(=O)n(CC(=O)N3CCCCCC3)cnc21,,"inconclusive: 28.2 µM [inhibitor, partial curve]"
CCOC(=O)c1c(NC(=O)CN2CCOCC2)sc2c1CC(C)(C)OC2,,"inconclusive: 25.1 µM [inhibitor, partial curve]"
CCOC(=O)CSc1nnc(COc2cccc(C)c2)o1,,"inconclusive: 15.8 µM [inhibitor, partial curve]"
CCc1cccc(CC)c1NC(=O)C(CC)n1nc(C)n2c(cc3cc(C)ccc32)c1=O (stereo not given),,"inconclusive: 5.62 µM [inhibitor, full curve, poor fit]"
CC(C)CNC(=O)CC(=O)N/N=C/c1ccc(F)cc1,,"inconclusive: 56.2 µM [inhibitor, single point]"
CCOC(=O)C1CCCN(C(=O)c2cccc(NC(=O)c3nsc4ccccc34)c2)C1 (stereo not given),,"inconclusive: 12.6 µM [inhibitor, partial curve]"
Cc1nc(SCC(=O)Nc2ccc(N3CCOCC3)cc2)nc(C)c1C,inactive: -16.1%,

SMILES,"activity change, negative = displacement",Potency
COc1ccc(NC(=S)N(CCCN2CCC(C)CC2)Cc2cccs2)cc1,,"inconclusive: 25.1 µM [inhibitor, partial curve, poor fit]"
Cc1ccc(C)c(NC(=O)C2CC3CCC2C3)c1 (stereo not given),,"inconclusive: 22.4 µM [inhibitor, partial curve]"
COc1cc(C2C(=O)N(C3CCCCCC3)CC(=O)N2CCC2=CCCCC2)ccc1OC(C)C (stereo not given),inactive: -6.93%,
CN(C)/C=C/c1oc2ccc(O)cc2c1[N+](=O)[O-],,"inconclusive: 28.2 µM [inhibitor, partial curve]"
Cc1ccsc1/C=N\NC(=O)c1ccc2c(c1)OCO2,,"inconclusive: 31.6 µM [inhibitor, single point]"
O=C(NC(=S)Nc1ccccc1Br)c1ccc2c(c1)OCO2,inactive: -2.62%,
CCN(CC)C(=O)COc1cc(C)c(Cl)c(C)c1,,"inconclusive: 35.5 µM [inhibitor, partial curve]"
N#Cc1ccc(OCC(O)CN2CCN(CC(O)COc3ccc(C#N)cc3)CC2)cc1 (stereo not given),inactive: 8.75%,
C=CCSc1nnc(-c2ccc(Cl)cc2Cl)o1,,"inconclusive: 35.5 µM [inhibitor, partial curve]"
COc1ccccc1NC1SC(=O)N(c2ccccc2)C1=O (stereo not given),,"inconclusive: 39.8 µM [inhibitor, single point]"
CC1CCN(C2=C(NS(=O)(=O)c3ccc(Cl)cc3)C(=O)c3ccccc3C2=O)CC1,inactive: -23.8%,
CCOC(=O)c1[nH]c2ccc(OC)cc2c1NC(=O)CCN1CCCC(C)C1 (stereo not given),inactive: 4.3%,
O=C1Cc2cc(S(=O)(=O)Nc3cccc([N+](=O)[O-])c3)cc3c2N1CCC3,,"inconclusive: 17.8 µM [inhibitor, partial curve]"
Cc1nn(C)c(Oc2cccc(Cl)c2)c1C#N,,"inconclusive: 35.5 µM [inhibitor, partial curve]"
CCc1c(C)nc(SCC(=O)N2C(C)CCCC2C)[nH]c1=O (stereo not given),,"inconclusive: 35.5 µM [inhibitor, partial curve]"
CC(=O)Nc1cccc(NC(=O)CSc2nc(C3CC3)nc3ccccc23)c1,inactive: 7.82%,
CCOc1ccc2[nH]c3c(NCCN(CC)CC)ncnc3c2c1,inactive: -6.08%,
Cc1ccc(NS(=O)(=O)c2ccccc2[N+](=O)[O-])cc1C,,"inconclusive: 28.2 µM [inhibitor, partial curve]"
CCC(Cn1nnc2ccccc2c1=O)NC(=O)Nc1ccc(C)cc1 (stereo not given),,"inconclusive: 56.2 µM [inhibitor, single point]"
N#CC(c1ccc(Cl)cc1)c1ncc(C(F)(F)F)cc1Cl (stereo not given),,"inconclusive: 22.4 µM [inhibitor, partial curve]"
CCN(CC)P(=O)(C(NC(=O)OC)C(F)(F)C(F)(F)C(F)(F)C(F)F)N(CC)CC (stereo not given),,"inconclusive: 56.2 µM [inhibitor, single point]"
O=C(CSc1ncnc2nc[nH]c12)Nc1nnc(SCc2ccc(Cl)c(Cl)c2)s1,,"inconclusive: 22.4 µM [inhibitor, partial curve]"
CCOc1ccccc1OCCn1nnc2ccccc21,inactive: -0.461%,
Cc1ccc(S(=O)(=O)NCC(=O)N/N=C/c2ccccc2O)cc1,,"inconclusive: 35.5 µM [inhibitor, partial curve]"

SMILES,"activity change, negative = displacement",Potency
Cc1ccc(S(=O)(=O)NCCSc2ccccc2)cc1[N+](=O)[O-],,"inconclusive: 28.2 µM [inhibitor, partial curve]"
Cc1cccc(S(=O)(=O)Nc2ccc3c(c2)OCCO3)c1,,"inconclusive: 25.1 µM [inhibitor, partial curve]"
O=C(Nc1nc(-c2ccc(Cl)s2)cs1)c1ccccc1,inactive: -11.1%,
CN1CCc2c(sc3c2c(=O)n(-c2ccccc2)c2nnc(SCc4ccc(Cl)cc4)n32)C1,,"inconclusive: 39.8 µM [inhibitor, partial curve]"
CCSc1nc(C(F)(F)F)cc(=O)n1-c1ccccc1,,"inconclusive: 50.1 µM [inhibitor, single point]"
Cn1cccc1/C=C1\CC(C(C)(C)C)C/C(=C\c2cccn2C)C1=O (stereo not given),,"inconclusive: 5.01 µM [inhibitor, full curve]"
S=c1nc(-c2cccc(Br)c2)[nH][nH]1,,"inconclusive: 39.8 µM [inhibitor, single point]"
CCCn1nnc(NC(=O)c2cccc(OCc3ccccc3)c2)n1,,"inconclusive: 25.1 µM [inhibitor, partial curve]"
O=C(CN1CCSC1=NCc1ccccc1)c1ccccc1,,"inconclusive: 44.7 µM [inhibitor, partial curve]"
COc1ccc(CNC(=O)C/C(C)=N/NC(=O)COc2ccc(C)cc2Br)cc1,,"inconclusive: 28.2 µM [inhibitor, partial curve]"
Cc1cccc(OCCc2nnc(N)s2)c1C,,"inconclusive: 20 µM [inhibitor, partial curve]"
CCn1c(Cc2ccccc2)nnc1SCC(=O)Nc1ccccc1O,inactive: -12.2%,
C[C@@H](CO)[C@H](/C=C/c1ccccc1)CCO[Si](c1ccccc1)(c1ccccc1)C(C)(C)C,,"inconclusive: 39.8 µM [inhibitor, single point]"
CCCC/C=C/[C@H](c1ccccc1)[C@H](CO)Cc1ccccc1,inactive: -0.621%,
CCCN1C2CCCC1CC(NC(=O)c1cccc([N+](=O)[O-])c1)C2 (stereo not given),inactive: 4.91%,
CCOc1ccc2c(c1)c(=O)c(C(=O)c1ccccc1)cn2Cc1ccccc1,,"inconclusive: 15.8 µM [inhibitor, partial curve]"
CCCOc1ccc(Br)cc1/C=N/O,,"inconclusive: 15.8 µM [inhibitor, partial curve]"
Cc1cc(C)n(-c2ccc(C(=O)Nc3nc4ccccc4s3)cc2)n1,,"inconclusive: 15.8 µM [inhibitor, partial curve]"
CCOc1nc2c(c(=O)n(C)c(=O)n2C)n1Cc1ccccc1Cl,inactive: 3.24%,
Cc1ccc(S(=O)(=O)Nc2c(Cl)c(Cl)c(O)c3ccccc23)cc1,,"inconclusive: 20 µM [inhibitor, partial curve]"
CCOC(=O)c1sc2nc(N3CCCC3)c3c(c2c1N)CC(C)(C)OC3,inactive: -15.9%,
CCOC(=O)C1=C(C)N=c2s/c(=C3\C(=O)Nc4ccccc43)c(=O)n2C1c1ccc2c(c1)OCO2 (stereo not given),inactive: -2.75%,

# Reference: PubChem BioAssay AID485281 (National Center for Advancing Translational Sciences (NCATS), 2010)
